# Measurements: the RNAGym collection of RNA variant scans (doi:10.7554/elife.90254)
# The source gives no read counts; variants with many changes may rest on few reads.
# B1: LINE1-mini (parent)
# chain: GGCAGAGCUCAACACAGCGUGGCAAAGUGGCUGUGGCUAGACUGCC
# Variants of: B1
# Assay: self-cleavage, relative activity (ratio to wild type); higher = more cleavage; in vitro, sequencing; the parent is a self-cleaving ribozyme
row,Variant,self-cleavage
1,G27C G40A A41G G44U,0.04
2,G27C G44C C46A,0.09
3,G27C U28C G30U C42A G44C,0.04
4,G27C U32A C37G,0.06
5,G27C U32A G33A G40C,0.1
6,G27C U34C C42A,0.09
7,G27U C31A A41U,0.1
8,G27U C31G U43A,0.19
9,G27U C31U U32A C46G,0.08
10,G27U C37A C42A U43G,0.01
11,G27U C37A C42U,0.19
12,G27U C42G G44U,0.02
13,G27U G29A A39G,0.06
14,G27U G29A C31U,1.34
15,G27U G29U C45A,1.19
16,G27U G30A G40A C42G G44U,0.06
17,G27U G33A A41C,0.04
18,G27U G33A G36C C42A,0.04
19,G27U G33C C42A,0.06
20,G27U G33C G36A A41C,0
21,G27U G35A A41C C45A,0.07
22,G27U G35U C46G,0.08
23,G27U G35U G40C,0.2
24,G27U G36U G44A,0.03

row,Variant,self-cleavage
1,G27U G40A A41G,0.17
2,G27U G40A C46G,0.26
3,G27U G40C A41U,0.2
4,G27U G44A C46U,0.07
5,G27U U28G G29C,0.2
6,G27U U28G G36U A41U,0.05
7,G27U U32C C42G,0
8,G27U U32C G44A,0.05
9,G27U U34G G35U G36U,0.01
10,G27U U43A G44A,0.07
11,U28A A39G A41C,0
12,U28A A41C C46A,0.03
13,U28A A41U G44A,0.42
14,U28A A41U U43C,0.08
15,U28A C31A U38C,0.05
16,U28A C31U A41G,0.19
17,U28A C31U U32A G36U G40C C46U,0.03
18,U28A C37A G40C C42A C45U,0.15
19,U28A C37G A41G,0.02
20,U28A C37G C45A,0.21
21,U28A C42A C45U,0.01
22,U28A G29U G35A,0.29
23,U28A G30A A41C,0.08
24,U28A G30A U43C,0.74

row,Variant,self-cleavage
1,U28A G30C G36A C37A,0.1
2,U28A G33A G36U,0
3,U28A G33C G44C,0.05
4,U28A G33U C42G,0.01
5,U28A G35U A39G,0.09
6,U28A G35U C45A,0
7,U28A G36U G40C C42A C45A,0.01
8,U28A G40A C42G,0.05
9,U28A U32A G36A,0.02
10,U28A U32C G36A A41U,0.09
11,U28A U34C C46G,0.11
12,U28A U38A C42U C45G,0.01
13,U28A U38G C42U G44U,0.01
14,U28C C31G A41U,0.09
15,U28C C31G U32A,0.03
16,U28C C31U U34G C46U,0.07
17,U28C G30A U38C,0.43
18,U28C G30C C37A,0.01
19,U28C G30C G33A C42A C46G,0
20,U28C G30U C31A U43A C46U,0.02
21,U28C G30U G40C,0.03
22,U28C G33A G36A A41U,0.24
23,U28C G35U G44U C45A,0.04
24,U28C G36A C37G A41C,0.01

row,Variant,self-cleavage
1,U28C U32G G36A A41U,0.04
2,U28C U43C G44A,0.01
3,U28G C31A C37A C45U,0.03
4,U28G C31A C42G,0.01
5,U28G C31A G35A U43A,0.03
6,U28G C31U U38A A39U C45U,0.3
7,U28G G29C A39C,0.02
8,U28G G29U A39G,0.04
9,U28G G29U C42U,0.29
10,U28G G29U G33C C37U,0.05
11,U28G G30A U32C C45A,0.04
12,U28G G30C U32C C37U G40U,0.01
13,U28G G30U U38G,0.04
14,U28G G33A U38G C42G,0.02
15,U28G G33C G35A G44U,0.01
16,U28G G33C G35C,0.03
17,U28G G33U G35A U43C,0.02
18,U28G G36U G44A,0.12
19,U28G G44C C45A,0.04
20,U28G U34A C37A C45A,0
21,U28G U34C G40C C42U C45A C46A,0.02
22,U28G U34G G35A,0.19
23,G29A A39G C42U U43G,0.04
24,G29A A41C G44C,0.05

row,Variant,self-cleavage
1,G29A C31A G35U G40U,0.04
2,G29A C37G C45G C46A,0.04
3,G29A G33A G35C C37U,0.03
4,G29A G33U A41U C46A,0.05
5,G29A G33U C45A,0.02
6,G29A G35C A41C C42U,0.03
7,G29A G35C C37A,0.15
8,G29A G35C C45A,0.03
9,G29A G35C G36C C37A C45G,0.02
10,G29A G36U C37G U43A,0.01
11,G29A G40U C46A,0.08
12,G29A U32A C37A,0.1
13,G29A U32A G36U C46U,0.13
14,G29A U32C C46A,0.19
15,G29A U34G G36A U43C,0.02
16,G29C C31A A41G,0.15
17,G29C C31G G36C G40A,0.11
18,G29C C31G U32C G40U,0.06
19,G29C C31G U32G,0.06
20,G29C C31U U38G,0.01
21,G29C C37G C45G,0.01
22,G29C C37U A39U,0
23,G29C C37U U38C,0.07
24,G29C G30C C37U A39C,0.01

row,Variant,self-cleavage
1,G29C G33A G40A,0.06
2,G29C G33U C37U A41G,0.13
3,G29C G35C U38A,0.05
4,G29C G36A C37G,0.01
5,G29C G36A C42A,0.01
6,G29C G36U U38G C42A,0
7,G29C G40U C42A,0.11
8,G29C G40U U43G C45U,0.03
9,G29C U34A C46A,0.04
10,G29U C31A C45U,0.19
11,G29U C31A U32A G44C,0.03
12,G29U C37A G44C,0.03
13,G29U C37U G40C,0.07
14,G29U G30A A41C,0.01
15,G29U G30A A41U,0.76
16,G29U G30A C42G,0.06
17,G29U G30A G40U,0.08
18,G29U G30U G33U,0.03
19,G29U G30U G40A,0.28
20,G29U G33A A41G,0.08
21,G29U G33A G40U,0.05
22,G29U G35A C37A,2.14
23,G29U G35C C37A,0.12
24,G29U G35U A39C,0.01

row,Variant,self-cleavage
1,G29U G35U C45U C46A,0.02
2,G29U G40C C42U,0.07
3,G29U U32C G40C,0.17
4,G29U U34A G35A U38C C45A,0
5,G29U U38A C45G,0.11
6,G29U U38C C45A,0.09
7,G30A C31A U32G C37U,0.02
8,G30A C31G G35A C46U,0.03
9,G30A C31G U38C C45G,0.02
10,G30A G33A G35A,0.32
11,G30A G33A G44U C46U,0.19
12,G30A G35A C46A,0.07
13,G30A G35A G40U,0.09
14,G30A G35U G36A U38A A39G,0.03
15,G30A G35U G40A,0.03
16,G30A G36U A41C,0.02
17,G30A G36U C42U,0.1
18,G30A G40A C42G C45A,0.02
19,G30A G40C C46G,0.04
20,G30A G40U C42U,0.2
21,G30A U38A G40U C42U,0.03
22,G30C A39G C45A C46U,0.1
23,G30C A39U A41G,0.04
